One assay deals with HSkMC. The experiment in a line: cytotoxicity call (relative viability < 0.9). The conditions noted are these: 10 µM.
A further assay relates to HepG2. Kind of assay: cytotoxicity call (relative viability < 0.9). The conditions noted are these: 10 µM.
For another assay, the system named is S. aureus RN4220. Kind of assay: growth inhibition call (relative growth <= 0.2). The conditions noted are these: 50 µM.

The text below walks through data of the antibiotic and cytotoxicity screens of Wong et al. (2023).

The other results are listed elsewhere or left out.

In the case of `C[C@@H]1CN([C@H](C)CO)C(=O)c2cc(NC(=O)C3CC3)ccc2O[C@@H]1CN(C)C(=O)NC1CCCCC1`, the cytotoxicity call in the assay on HSkMC and in the assay on HepG2 was “inactive” each time. The growth inhibition call in the assay on S. aureus RN4220 was “inactive”.
As to `C[C@@H]1CN([C@@H](C)CO)C(=O)Cc2cc(NS(=O)(=O)c3ccc(Cl)cc3)ccc2O[C@@H]1CN(C)C(=O)Nc1cccc2ccccc12`, the cytotoxicity call in the assay with HSkMC and in the assay with HepG2 was “inactive” throughout. The growth inhibition call in the assay with S. aureus RN4220 was “inactive”.
In the case of `C[C@@H](NC(=O)C[C@@H]1CC[C@H](NC(=O)CN2CCOCC2)[C@H](CO)O1)c1ccccc1`, the cytotoxicity call in the assay on HSkMC and in the assay with HepG2 was “inactive” in each case. Further, the growth inhibition call with S. aureus RN4220 is “inactive”.
Turning to `Cc1ccccc1-c1ccc(N)cc1`, the cytotoxicity call with HSkMC and in the assay on HepG2 was “inactive” each time. In addition, in the assay with S. aureus RN4220, the growth inhibition call is “inactive”.
For the molecule `COc1cccc(S(=O)(=O)N(C)C[C@H]2Oc3ncc(C#CCN(C)C)cc3C(=O)N([C@@H](C)CO)C[C@@H]2C)c1`, the cytotoxicity call in the assay with HSkMC and in the assay with HepG2 was “inactive” each time. The growth inhibition call in the assay on S. aureus RN4220 is “inactive”.
With `COc1ccc(S(=O)(=O)N(C)C[C@@H]2Oc3c(NC(=O)NC(C)C)cccc3C(=O)N([C@H](C)CO)C[C@@H]2C)cc1`, the cytotoxicity call in the assay on HSkMC and with HepG2 was “inactive” each time. Moreover, the growth inhibition call in the assay with S. aureus RN4220 is “inactive”.
On to `CC(C)NC(=O)Nc1ccc2c(c1)C(=O)N([C@@H](C)CO)C[C@H](C)[C@@H](CN(C)CC1CCCCC1)OCCCC[C@H](C)O2`, for which the cytotoxicity call in the assay with HSkMC and with HepG2 was “inactive” in each case. Also, the growth inhibition call in the assay on S. aureus RN4220 is “inactive”.
Turning to `CN1CCN(C(=O)C[C@H]2CC[C@@H]3[C@H](COC[C@@H](O)CN3S(=O)(=O)c3cccc(Cl)c3)O2)CC1`, the cytotoxicity call with HSkMC and in the assay with HepG2 was “inactive” each time. In addition, the growth inhibition call in the assay with S. aureus RN4220 is “inactive”.
For `C[C@@H]1CN([C@H](C)CO)C(=O)c2cccc(NC(=O)C3CC3)c2O[C@@H]1CN(C)Cc1ccc(C(=O)O)cc1`, the cytotoxicity call with HSkMC and with HepG2 was “inactive” throughout. The growth inhibition call with S. aureus RN4220 was “inactive”.
As to `Cc1ccc(S(=O)(=O)N2C[C@H](O)COC[C@@H]3O[C@H](CC(=O)NCCN4CCCCC4)CC[C@H]32)cc1`, the cytotoxicity call with HSkMC and with HepG2 was “inactive” throughout. In addition, in the assay on S. aureus RN4220, the growth inhibition call is “inactive”.
`CC(=O)Nc1cccc(S(N)(=O)=O)c1`: the cytotoxicity call in the assay on HSkMC and with HepG2 was “inactive” throughout. In addition, the growth inhibition call in the assay on S. aureus RN4220 is “inactive”.
For the molecule `C[C@@H]1CN([C@@H](C)CO)C(=O)Cc2cc(NC(=O)Cn3cnnn3)ccc2O[C@H]1CN(C)Cc1ccc(C(=O)O)cc1`, the cytotoxicity call with HSkMC and with HepG2 was “inactive” throughout. The growth inhibition call in the assay with S. aureus RN4220 is “inactive”.
In the case of `COc1ccc(S(=O)(=O)N(C)C[C@@H]2Oc3ccc(NC(=O)CCCN(C)C)cc3CC(=O)N([C@H](C)CO)C[C@@H]2C)cc1`, the cytotoxicity call in the assay on HSkMC and with HepG2 was “inactive” throughout. In addition, the growth inhibition call with S. aureus RN4220 was “inactive”.
For `Cc1noc(C)c1NC(=O)Nc1ccc2c(c1)C(=O)N([C@H](C)CO)C[C@@H](C)[C@@H](CN(C)S(=O)(=O)c1ccccc1)O2`, the cytotoxicity call with HSkMC and in the assay with HepG2 was “inactive” in each case. Moreover, the growth inhibition call in the assay with S. aureus RN4220 is “inactive”.
For `C[C@H]1CCCCO[C@H](CN(C)Cc2ccc3c(c2)OCO3)[C@@H](C)CN([C@@H](C)CO)C(=O)c2cc(NC(=O)Nc3ccc(C(F)(F)F)cc3)ccc2O1`, the cytotoxicity call in the assay with HSkMC and in the assay with HepG2 was “active” each time. In the assay with S. aureus RN4220, the growth inhibition call is “inactive”.
`C[C@@H]1CN([C@H](C)CO)C(=O)c2cccc(NS(=O)(=O)c3cccs3)c2O[C@H]1CN(C)Cc1ccc(Oc2ccccc2)cc1`: the cytotoxicity call in the assay on HSkMC and in the assay on HepG2 was “inactive” throughout. In addition, in the assay on S. aureus RN4220, the growth inhibition call was “inactive”.
For the molecule `C[C@H](CO)N1C[C@H](C)[C@H](CN(C)C(=O)c2cc(Cl)cc(Cl)c2)OCc2ccccc2-c2c(n(C)c3ccccc23)C1=O`, the cytotoxicity call with HSkMC and in the assay on HepG2 was “inactive” each time. The growth inhibition call in the assay on S. aureus RN4220 is “inactive”.
For the molecule `C[C@@H]1CCCCO[C@H](CN(C)S(=O)(=O)c2ccc(F)cc2)[C@H](C)CN([C@H](C)CO)C(=O)c2cc(NS(C)(=O)=O)ccc2O1`, the cytotoxicity call in the assay with HSkMC and in the assay with HepG2 was “inactive” in each case. The growth inhibition call in the assay with S. aureus RN4220 was “inactive”.
For the molecule `O=C(O)CCC(=O)C(=O)O`, the cytotoxicity call in the assay on HSkMC and with HepG2 was “inactive” each time. Further, the growth inhibition call in the assay on S. aureus RN4220 is “inactive”.
Take `C[C@@H]1CN([C@H](C)CO)C(=O)c2cc(NC(=O)Nc3cccc4ccccc34)ccc2O[C@@H](C)CCCCO[C@H]1CN(C)C(=O)Nc1ccc(C(F)(F)F)cc1`: the cytotoxicity call in the assay with HSkMC and with HepG2 was “inactive” each time. For the same molecule, the growth inhibition call in the assay with S. aureus RN4220 was “inactive”.
Consider `COc1cc(-c2cc(=O)c3c(=O)cc(-c4ccc(O)c(OC)c4)n(CCc4ccccc4)c3s2)ccc1O`, for which the cytotoxicity call in the assay with HSkMC and in the assay on HepG2 was “inactive” in each case. In the assay with S. aureus RN4220, the growth inhibition call was “inactive”.
For the molecule `Cc1ccc(CNc2ccccn2)o1`, the cytotoxicity call with HSkMC and in the assay with HepG2 was “inactive” in each case. Moreover, the growth inhibition call in the assay with S. aureus RN4220 is “inactive”.
Regarding `C[C@@H]1CN([C@H](C)CO)C(=O)c2cccc(NC(=O)c3nc4ccccc4s3)c2O[C@H]1CN(C)S(C)(=O)=O`, the cytotoxicity call in the assay with HSkMC and in the assay on HepG2 was “inactive” in each case. Moreover, the growth inhibition call in the assay with S. aureus RN4220 is “inactive”.
For `C[C@@H]1CN([C@H](C)CO)C(=O)Cc2cc(NC(=O)Nc3cccc4ccccc34)ccc2O[C@@H]1CN(C)S(=O)(=O)c1ccc(Cl)cc1`, the cytotoxicity call in the assay on HSkMC and in the assay with HepG2 was “inactive” each time. Also, in the assay with S. aureus RN4220, the growth inhibition call is “inactive”.
On to `C[C@@H]1CCCCO[C@H](CN(C)C(=O)C2CCCCC2)[C@H](C)CN([C@@H](C)CO)C(=O)c2cc(NC(=O)Nc3ccccc3)ccc2O1`, for which the cytotoxicity call in the assay on HSkMC and with HepG2 was “inactive” each time. Besides, the growth inhibition call with S. aureus RN4220 was “inactive”.
In the case of `C[C@H](CO)N1C[C@H](C)[C@@H](CN(C)S(=O)(=O)c2ccc(F)cc2)Oc2ccc(NC(=O)Nc3cccc4ccccc34)cc2C1=O`, the cytotoxicity call with HSkMC and in the assay on HepG2 was “inactive” each time. Besides, in the assay on S. aureus RN4220, the growth inhibition call is “inactive”.
With `C[C@H]1CN([C@@H](C)CO)C(=O)c2cc(NC(=O)CCCN(C)C)ccc2O[C@H]1CN(C)S(=O)(=O)c1ccc(F)cc1`, the cytotoxicity call in the assay on HSkMC (human skeletal muscle cells) and in the assay on HepG2 was “inactive” in each case. Besides, the growth inhibition call in the assay with S. aureus RN4220 was “inactive”.
For `C[C@@H]1CN([C@H](C)CO)C(=O)c2cccc(NC(=O)Nc3ccc(C(F)(F)F)cc3)c2O[C@@H]1CN(C)C(=O)Nc1ccccc1`, the cytotoxicity call with HSkMC and in the assay with HepG2 was “active” in each case. In the assay with S. aureus RN4220, the growth inhibition call was “inactive”.
On to `C[C@H]1CN([C@@H](C)CO)C(=O)c2cc(NS(=O)(=O)c3cccs3)ccc2O[C@H]1CN(C)S(=O)(=O)c1ccc(F)cc1`, for which the cytotoxicity call with HSkMC and with HepG2 was “inactive” each time. In addition, in the assay with S. aureus RN4220, the growth inhibition call is “inactive”.
